Laboratory results reported in IntAct's records for PubMed 30126976.

B1: Glutamate receptor ionotropic, NMDA 2B (Homo sapiens), Q13224 (parent)
chain: MKPRAECCSPKFWLVLAVLAVSGSRARSQKSPPSIGIAVILVGTSDEVAIKDAHEKDDFHHLSVVPRVELVAMNETDPKSIITRICDLMSDRKIQGVVFADDTDQEAIAQILDFISAQTLTPILGIHGGSSMIMADKDESSMFFQFGPSIEQQASVMLNIMEEYDWYIFSIVTTYFPGYQDFVNKIRSTIENSFVGWELEEVLLLDMSLDDGDSKIQNQLKKLQSPIILLYCTKEEATYIFEVANSVGLTGYGYTWIVPSLVAGDTDTVPAEFPTGLISVSYDEWDYGLPARVRDGIAIITTAASDMLSEHSFIPEPKSSCYNTHEKRIYQSNMLNRYLINVTFEGRNLSFSEDGYQMHPKLVIILLNKERKWERVGKWKDKSLQMKYYVWPRMCPETEEQEDDHLSIVTLEEAPFVIVESVDPLSGTCMRNTVPCQKRIVTENKTDEEPGYIKKCCKGFCIDILKKISKSVKFTYDLYLVTNGKHGKKINGTWNGMIGEVVMKRAYMAVGSLTINEERSEVVDFSVPFIETGISVMVSRSNGTVSPSAFLEPFSADVWVMMFVMLLIVSAVAVFVFEYFSPVGYNRCLADGREPGGPSFTIGKAIWLLWGLVFNNSVPVQNPKGTTSKIMVSVWAFFAVIFLASYTANLAAFMIQEEYVDQVSGLSDKKFQRPNDFSPPFRFGTVPNGSTERNIRNNYAEMHAYMGKFNQRGVDDALLSLKTGKLDAFIYDAAVLNYMAGRDEGCKLVTIGSGKVFASTGYGIAIQKDSGWKRQVDLAILQLFGDGEMEELEALWLTGICHNEKNEVMSSQLDIDNMAGVFYMLGAAMALSLITFICEHLFYWQFRHCFMGVCSGKPGMVFSISRGIYSCIHGVAIEERQSVMNSPTATMNNTHSNILRLLRTAKNMANLSGVNGSPQSALDFIRRESSVYDISEHRRSFTHSDCKSYNNPPCEENLFSDYISEVERTFGNLQLKDSNVYQDHYHHHHRPHSIGSASSIDGLYDCDNPPFTTQSRSISKKPLDIGLPSSKHSQLSDLYGKFSFKSDRYSGHDDLIRSDVSDISTHTVTYGNIEGNAAKRRKQQYKDSLKKRPASAKSRREFDEIELAYRRRPPRSPDHKRYFRDKEGLRDFYLDQFRTKENSPHWEHVDLTDIYKERSDDFKRDSVSGGGPCTNRSHIKHGTGDKHGVVSGVPAPWEKNLTNVEWEDRSGGNFCRSCPSKLHNYSTTVTGQNSGRQACIRCEACKKAGNLYDISEDNSLQELDQPAAPVAVTSNASTTKYPQSPTNSKAQKKNRNKLRRQHSYDTFVDLQKEEAALAPRSVSLKDKGRFMDGSPYAHMFEMSAGESTFANNKSSVPTAGHHHHNNPGGGYMLSKSLYPDRVTQNPFIPTFGDDQCLLHGSKSYFFRQPTVAGASKARPDFRALVTNKPVVSALHGAVPARFQKDICIGNQSNPCVPNNKNPRAFNGSSNGHVYEKLSSIESDV

Variants of: B1
Details: with scrib_human SCRIB

Variant | effect of a mutation on the interaction
S1479E | decreasing interaction strength
